This note sets out measurements from patent US7615356B2, “Ion channel assay methods” (Vertex Pharmaceuticals (San Diego) LLC, priority 2000, dated 2009).

For the test, the system named is NaV2 sodium channel. Particulars: for dependence of block on time window of response (shift of dose-response curve) / EC50: CHO NaV2; for dependence of block on time window of response (shift of dose-response curve): 20 Hz stimulus, 1 second vs 3 seconds; for EC50: read-out: EC50, Electric field stimulation, average of two experiments, lowest recorded value for use-dependent blockers.

Bounds are passed on as bounds.

As usually defined, the EC50 is the concentration giving half of the maximal effect.

Consider `NC1=N[C@H](O)[C@H]2[C@H]3O[C@]4(O)O[C@@H]([C@@H](O)[C@@]2(N1)[C@@H]4O)[C@]3(O)CO` [TTX, tetrodotoxin], for which the “inhibition of response induced by field strengths up to 85 V/cm” value was “could be inhibited” and the “response of spiked wells” value is listed as “little or no detectable response”.

With `CCN(CC)CC(=O)Nc1c(C)cccc1C` [Lidocaine], the “dependence of block on time window of response (shift of dose-response curve)” value (“dependence … (shift of dose-response curve)” for short) is recorded as “smaller amount of shift” and the EC50 is 30 µM.

In the case of `COc1cc(CNC(=O)CCCC/C=C/C(C)C)ccc1O` [capsaicin], the EC50 was determined as 1.6 µM.

For `CCCCNc1ccc(C(=O)OCCN(C)C)cc1` [tetracaine], the “dependence … (shift of dose-response curve)” value is reported as “an order of magnitude stronger at 3 seconds than at 1 second” and the EC50 turned out to be 0.19 µM.

For the compound `O=C1NC(=O)C(c2ccccc2)(c2ccccc2)N1` [Phenytoin], the concentration giving a half-maximal response (EC50) is 24 µM.

Regarding `CCCCN1CCCCC1C(=O)Nc1c(C)cccc1C` (centres unmarked) [Bupivacaine], the “dependence … (shift of dose-response curve)” value is “smaller amount of shift” and the EC50 worked out at 1 µM.

Turning to `N=C(N)NC(=O)c1nc(Cl)c(N)nc1N` [amiloride], the EC50 was greater than 1000 µM.
